In all, about 33,000 sequences were measured (“E-score (-0.5 to 0.5)”: median about -0.016, highest 2% from about 0.32 on). The list shows a part of the results.
target: T1, Stp1 (UniProt B3LFK1); assay: PBM E-score (8-mer binding enrichment) (E-score (-0.5 to 0.5)); higher = stronger / more preferred TF binding; most listed sequences are background and not binding sites; settings: protein concentration: 200 nM; construct: GST-full length
T1 sequence: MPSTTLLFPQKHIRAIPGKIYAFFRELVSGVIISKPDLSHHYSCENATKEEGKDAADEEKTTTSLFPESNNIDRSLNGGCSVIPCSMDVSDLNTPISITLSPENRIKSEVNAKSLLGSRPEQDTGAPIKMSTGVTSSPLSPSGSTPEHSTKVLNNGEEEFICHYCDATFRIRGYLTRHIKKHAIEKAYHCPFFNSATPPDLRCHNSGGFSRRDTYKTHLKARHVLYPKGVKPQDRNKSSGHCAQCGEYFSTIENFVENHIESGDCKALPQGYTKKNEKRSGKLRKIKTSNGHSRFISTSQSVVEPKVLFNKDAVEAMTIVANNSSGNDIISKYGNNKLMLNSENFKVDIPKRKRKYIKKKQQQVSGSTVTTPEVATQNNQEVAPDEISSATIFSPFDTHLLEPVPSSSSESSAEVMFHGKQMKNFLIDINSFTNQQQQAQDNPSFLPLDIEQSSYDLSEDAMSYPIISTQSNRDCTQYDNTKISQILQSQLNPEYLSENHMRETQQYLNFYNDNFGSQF
Summary of the method: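 Using PURExpress in vitro transcription/translation, GST-tagged yeast transcription factors were made in full-length or DNA-binding-domain form. These were applied at about 100-200 nM to double-stranded universal all-10-mer Agilent arrays, and bound protein was detected with fluorescent anti-GST. Scans were normalised with masliner before the Universal PBM Analysis Suite assigned E-scores to ungapped eight-base words pooled with their reverse complements.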

| Sequence | PBM E-score |
| --- | --- |
| AGCCACTG | -0.0303 |
| CATCCTAC | -0.016 |
| GAATCTAA | 0.0299 |
| AACACAGA | 0.00844 |
| GGTGGTTA | 0.00324 |
| CAGTAGAC | -0.0592 |
| GAATTAAC | 0.0369 |
| CTGGTTGC | -0.0153 |
| CCGTTGTC | 0.186 |
| AAAATTGG | -0.0667 |
| GGGCTCGA | -0.145 |
| ACGGCTAT | 0.349 |
| GCTAAAGA | 0.0376 |
| TCTGATAA | 0.0748 |
| TATCCAAA | 0.0906 |
| GGTAAAAA | 0.236 |
| ACTGTCGC | -0.0226 |
| AAGGACAC | 0.0891 |
| CAATACTC | 0.0516 |
| ATGAGCTC | -0.215 |
| CGATGGGC | 0.011 |
| CTAGAAAA | -0.0127 |
| CTCTGTTC | -0.188 |
| CACGCGGC | 0.459 |
| AAGGTGAC | -0.219 |

| Sequence | PBM E-score |
| --- | --- |
| AAAGATTC | 0.16 |
| CTAACATA | 0.0934 |
| GTCGCAAC | -0.0752 |
| GGATAATA | 0.135 |
| GTGCCTCA | 0.365 |
| GGTGGAAA | -0.209 |
| GGCTTCGA | 0.175 |
| CACAAAGA | 0.142 |
| ACGTAGAT | -0.0617 |
| AGGACCAC | -0.26 |
| GATTCCAC | 0.151 |
| GGCGGGAC | -0.153 |
| ACCTCGTC | -0.169 |
| CGCGCCAG | 0.117 |
| GTCCTTTA | -0.123 |
| CTCCATAC | 0.0182 |
| ACACTAGG | -0.111 |
| GACGCTTA | -0.26 |
| GCGCGTGA | 0.173 |
| AAAACCAC | 0.0589 |
| GGGTACAC | -0.00828 |
| CCTCTCTA | -0.212 |
| CTCTTGTA | -0.0716 |
| GGCACGGA | 0.376 |
| AGTCGTAA | -0.00672 |

| Sequence | PBM E-score |
| --- | --- |
| GCCACGGC | 0.469 |
| GGGAGCAA | -0.333 |
| GCTCCAGC | -0.0515 |
| CCCAAGCA | 0.0872 |
| CATACAGC | -0.249 |
| GAAGCTCC | -0.0424 |
| GAAAAACA | -0.0335 |
| CGGGAAGC | -0.066 |
| GGAACTAC | -0.0352 |
| ACCTCAAA | -0.0168 |
| CCCTGGCA | -0.196 |
| TAGGAGGA | -0.113 |
| CACCCGCC | 0.0898 |
| ATAGTATG | -0.0217 |
| ATAACCTC | 0.0784 |
| CAGTGTAG | 0.0536 |
| ACTTACGA | 0.195 |
| AGGGTGGA | -0.18 |
| GACGAGTA | -0.0493 |
| AGAGTTAT | -0.187 |
| GACACAGC | -0.0567 |
| CCCCCGCC | -0.262 |
| GTGCCCAC | -0.00488 |
| CCAAGTAA | 0.18 |
| CTTTTAGA | 0.0884 |

| Sequence | PBM E-score |
| --- | --- |
| AACACCCC | -0.129 |
| AAACCGGA | 0.019 |
| AACCTTTA | -0.0416 |
| CCGTCCTC | -0.0869 |
| CTTACGGC | 0.301 |
| CTGGCGCA | -0.0136 |
| GCTTTGCA | -0.22 |
| AGAACGAG | -0.0161 |
| TCCAGGCA | 0.0486 |
| CGATGTCA | -0.158 |
| ACGTCTCT | -0.0532 |
| AACGCTAG | -0.086 |
| CCATCATC | -0.139 |
| AAATATCT | 0.0537 |
| CAGCATGA | -0.212 |
| ACCGGGTA | -0.0938 |
| GTCCCGAA | -0.215 |
| AAGACACA | -0.0162 |
| CTAGGCTC | -0.0833 |
| ACCGCGTG | 0.0896 |
| CGTCCAAC | -0.0455 |
| GCTCACAA | 0.21 |
| ATATATAT | 0.303 |
| ATATCAAC | 0.143 |
| CTTTTCTC | 0.0401 |

| Sequence | PBM E-score |
| --- | --- |
| ACTCTAGC | -0.125 |
| CTGTGTCC | -0.0348 |
| AATCATAC | 0.00023 |
| AACACGCT | -0.0712 |
| ACCGTCTA | -0.0765 |
| AAAGTCGA | -0.15 |
| GAGCACGC | -0.169 |
| CTCTGATA | -0.0258 |
| CGCGCAGC | 0.0787 |
| CCTATTCG | -0.133 |
| TAGCCCTA | -0.0402 |
| AAGATCAG | -0.0311 |
| ACTCGGTA | -0.189 |
| GGCTCTCA | 0.0688 |
| CATACTTA | -0.00908 |
| AGTGATTA | 0.249 |
| AATCTGAC | 0.0257 |
| CCCTCCGA | -0.355 |
| CCTGGTCC | -0.268 |
| TAATGAGA | -0.0848 |
| CAAGTCTA | -0.124 |
| TAGGGCGA | 0.178 |
| ATCCCCAA | -0.0812 |
| CGACTATC | 0.00023 |
| ATAGAAAT | 0.197 |

| Sequence | PBM E-score |
| --- | --- |
| GGATTGCA | -0.0528 |
| AAAGGTGA | -0.0774 |
| CGCGGTTA | 0.0151 |
| ACGTTTTG | -0.073 |
| GTCTAAAA | -0.0262 |
| CCGGTGAG | -0.166 |
| GGCGAGCA | -0.111 |
| AGAGAATC | -0.0607 |
| CGAACACA | 0.0328 |
| CCGATCGC | -0.16 |
| TCATCGAA | 0.0188 |
| AGTATGAT | 0.0518 |
| GGGAGATA | -0.214 |
| CGCGTTAA | 0.0157 |
| CGGCGACG | 0.349 |
| CCTATCCG | -0.149 |
| AATCGTGA | -0.108 |
| CAGGCAGG | -0.244 |
| GCCCGCGC | 0.164 |
| AATCGTCA | 0.0612 |
| CACCCCTG | -0.289 |
| ACCGTAGG | -0.209 |
| GCTAATAA | -0.0966 |
| AGAAAAGG | 0.00586 |
| ATAAACGG | 0.305 |

| Sequence | PBM E-score |
| --- | --- |
| TACATACA | 0.0836 |
| GATGATAC | 0.0227 |
| CAATCGGA | -0.0497 |
| CACGTCGG | -0.0436 |
| AGTGTCGG | -0.176 |
| CCTGTACG | -0.026 |
| TTACCAAA | 0.16 |
| AGTGGTTC | -0.0543 |
| GATGAGGC | 0.177 |
| ATAAAAGC | 0.136 |
| CACGCCAA | 0.126 |
| ACGTCAGT | -0.171 |
| GACGTATA | -0.0569 |
| GTCGTAAC | -0.0896 |
| AGCCCTTA | -0.283 |
| ACCGATAA | 0.0159 |
| CCAGCAGC | -0.12 |
| AGGGTCAA | -0.135 |
| GGTAATAC | 0.0176 |
| ATAAGTTA | 0.151 |
| GCCTCTAC | -0.209 |
| GAAGCGCA | -0.0259 |
| CCGAGAAA | 0.152 |
| ATGCTGCC | 0.123 |
| ATACTAAG | -0.0044 |

| Sequence | PBM E-score |
| --- | --- |
| CCTTGCCA | 0.114 |
| GAATTCCC | -0.184 |
| AGCTCTAC | -0.1 |
| ACTAGCAG | -0.0753 |
| CTGTAGTC | -0.175 |
| CGAATCAA | 0.21 |
| CGCGTGCA | 0.0968 |
| CAACCATA | 0.0787 |
| CTCAGTCC | -0.195 |
| ATGCATAG | -0.138 |
| CGCTAAGA | -0.108 |
| CAGCTATA | -0.0903 |
| GCGTAAGC | 0.0483 |
| CCGTGTAG | 0.282 |
| GATGAGCC | -0.00449 |
| GGATTCCA | 0.143 |
| CACGGGTC | 0.157 |
| CGCCCCTC | 0.0824 |
| ATCACATA | 0.151 |
| CACCATGA | 0.00358 |
| CAGATCTA | -0.207 |
| GACGGTAC | -0.0457 |
| ACAACGTC | -0.0284 |
| ATGCAACG | 0.0583 |
| AGGTATGA | -0.0385 |

| Sequence | PBM E-score |
| --- | --- |
| ATGATAAC | 0.044 |
| GGCTTCCA | -0.00202 |
| CATCGCAG | -0.143 |
| GCCGTCCA | 0.364 |
| AGACGCTG | -0.186 |
| GGGTGTTA | -0.0258 |
| CCGCTTTA | 0.0741 |
| GCCCGAAA | -0.0481 |
| ATAGATTA | 0.161 |
| AATTGCTC | -0.187 |
| ACTGATCA | 0.0926 |
| ATGACCGC | -0.075 |
| CTTTCCGA | 0.0265 |
| CGCGAACA | 0.0373 |
| AATGCTCA | -0.0944 |
| CTCCCTAA | -0.142 |
| AGCGAAGG | 0.0368 |
| CCGTTATC | -0.0183 |
| ATCGGTGA | 0.0718 |
